Source: publication PMC6919601, “Identification of Plasmodium dipeptidyl aminopeptidase allosteric inhibitors by high throughput screening” (PLoS ONE, 2019)
Screen size: about 110,000 compounds; about 230 (0.21%) showed an effect of 50% or more. This is one part of the list.

Each molecule was assayed against DPAP1 (Plasmodium falciparum, UniProt Q8IIJ9) (assay: primary screen, percent inhibition; read by cleavage of a fluorogenic dipeptide substrate; higher = more effect of the substance).
Design: species or system P. falciparum D10 trophozoite lysates; single well
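Also: 30 min substrate incubation versus DMSO and 10 µM JCP410 controls.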

Chain of DPAP1 (Q8IIJ9 whole entry, looked up): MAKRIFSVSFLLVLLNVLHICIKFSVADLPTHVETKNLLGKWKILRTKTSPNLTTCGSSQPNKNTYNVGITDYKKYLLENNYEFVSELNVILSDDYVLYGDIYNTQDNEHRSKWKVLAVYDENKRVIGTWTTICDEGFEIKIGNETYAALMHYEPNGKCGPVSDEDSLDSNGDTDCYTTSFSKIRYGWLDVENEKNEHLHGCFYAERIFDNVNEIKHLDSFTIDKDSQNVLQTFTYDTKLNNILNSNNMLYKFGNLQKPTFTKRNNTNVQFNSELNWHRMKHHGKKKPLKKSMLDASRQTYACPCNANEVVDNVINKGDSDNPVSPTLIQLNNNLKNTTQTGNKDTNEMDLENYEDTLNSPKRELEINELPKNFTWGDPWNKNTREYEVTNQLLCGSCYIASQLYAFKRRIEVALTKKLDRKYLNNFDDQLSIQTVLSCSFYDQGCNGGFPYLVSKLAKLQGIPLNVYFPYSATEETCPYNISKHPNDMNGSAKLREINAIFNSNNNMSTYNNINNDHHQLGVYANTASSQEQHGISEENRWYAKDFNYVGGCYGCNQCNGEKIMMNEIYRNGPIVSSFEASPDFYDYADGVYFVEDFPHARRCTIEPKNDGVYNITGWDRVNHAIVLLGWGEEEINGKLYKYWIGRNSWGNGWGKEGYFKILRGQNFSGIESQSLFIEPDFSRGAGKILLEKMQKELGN

| SMILES | % Inhibition @ 10 uM |
| --- | --- |
| CCOC(=O)c1cnc2c(C)cc(C)cc2c1NCc1ccccc1 | 2.17% |
| O=C(Cn1ncc2c3ccccc3n(Cc3ccccc3F)c2c1=O)NCc1ccccn1 | 1.8% |
| Cc1ccc(C(=O)NC(=S)NCCc2ccccc2)cc1 | 1.74% |
| CCCCC1NC(C(=O)O)Cc2c1[nH]c1ccccc21 (stereo not shown) | -9.55% |
| CCOc1ccc(NC(=O)c2cc3c(ccc4ccccc43)o2)cc1 | -2.88% |
| COc1ccccc1/C=C1\C(=O)NC(=O)N(c2ccccc2)C1=O | -2% |
| O=C(NCCC1=CCCCC1)C(Cc1ccccc1)N1Cc2ccccc2C1=O (stereo not shown) | -1.34% |
| CCc1cccc(C)c1NC(=O)Cc1ccccc1 | 3.83% |
| CC(C)(C)c1ccccc1OCCCCCN1CCNCC1 | -4.5% |
| O=C(CCn1nc(-c2ccccc2)ccc1=O)NCCc1ccccc1 | -3.58% |
| Cc1cc(NC(=O)COc2ccccc2C)ccc1NC(=O)c1cccs1 | -3.85% |
| O=C(OCCC1(c2ccccc2)C(=O)c2ccccc2C1=O)c1ccc([N+](=O)[O-])cc1 | -0.415% |
| O=C1COc2ccc(C3=Nc4ccccc4SC(c4ccccc4)C3)cc2N1 (stereo not shown) | 1.15% |
| CC(C)C[C@H](NC(=O)c1cc2ccccc2o1)C(=O)NCC#N | -12.9% |
| COc1cc(C)nc(N(Cc2ccccc2)S(=O)(=O)c2ccccc2)n1 | 5.03% |
| Clc1ccc(CN2CCN(Cc3ccc4c(c3)OCO4)CC2)cc1Cl | 1.4% |
| CCCn1c(=N)c(C(=O)NCCCOC)cc2c(=O)n3cc(C)ccc3nc21 | -1.47% |
| CC(=O)c1c(C(C)=O)c(C)n(Cc2ccc3c(c2)OCO3)c1C | 3.54% |
| COc1ccc(OC)c(CN2CCN(Cc3c[nH]c4ccccc34)CC2)c1 | -4.01% |
| COc1ccc(C2C(C(=O)N3CCC(C)CC3)c3ccccc3C(=O)N2C)cc1 (stereo not shown) | -2.9% |
| Cc1ccc(S(=O)(=O)CCC(=O)O)cc1C | 1.63% |
| COC(=O)c1ccccc1-n1c(C)cc(/C=C2/NC(=O)N(Cc3ccccc3F)C2=O)c1C | -1.81% |

| SMILES | % Inhibition @ 10 uM |
| --- | --- |
| COc1ccc2ncc(S(=O)(=O)c3ccc(C)cc3)c(N3CCCC(C)C3)c2c1 (stereo not shown) | -1.69% |
| CC(C)N1C/C(=C/c2ccc(Br)o2)C(=O)/C(=C/c2ccc(Br)o2)C1 | 7.57% |
| CC1(C)CC(=O)C2=C(C1)N(Cc1ccccc1)C(=O)NC2(C(F)(F)F)C(F)(F)F | 1.91% |
| COc1ccc(-c2onc(C)c2C)cc1S(=O)(=O)N1CCN(c2ncccn2)CC1 | -7.66% |
| O=S(=O)(NCCc1cccs1)c1ccc(-c2cc(C(F)(F)F)no2)s1 | -3.61% |
| CC1CN(Cc2nc3c(c(=O)n(C)c(=O)n3C)n2CCCO)CC(C)O1 (stereo not shown) | -3.23% |
| O=C1NC(=S)S/C1=C\c1ccc(C(=O)O)cc1 | -6.22% |
| CCOc1ccccc1/C=C1\N=C(c2ccccc2OC)OC1=O | 6.56% |
| CCSc1cnc(-c2ccccc2)n1CC | -1.2% |
| Cc1nn(CC(=O)NCCc2ccc(Cl)cc2)c(=O)c2c1sc1ccccc12 | 2.8% |
| CCOc1ccc(OCC(=O)Nc2ccccc2F)cc1 | -11.5% |
| COc1ccc(OC)c(CN2CC(C)OC(C)C2)c1 (stereo not shown) | 0.215% |
| O=S(=O)(c1cnccc1N1CCN(CCO)CC1)N1CCCCC1 | -5.21% |
| N#Cc1cc2c(nc1SCC(=O)c1ccccc1)CCCC2 | 7.76% |
| Cc1ccc(C2=NN(CC(=O)N3CCC(Cc4ccccc4)CC3)C(=O)CC2)cc1 | 3.79% |
| Cc1ccc2c(O)c(C(=O)c3ccc(Cl)cc3)cnc2n1 | -3% |
| CCc1ccc(OCC(O)CN2CCN(c3ccccc3)CC2)cc1 (stereo not shown) | -0.261% |
| Cn1c(CO)nc2c3ccccc3ccc21 | -5.82% |
| N#Cc1c(NC(=O)c2ccc3c(c2)OCO3)sc2c1CCCCC2 | 2.69% |
| O=C1S/C(=C\c2ccc3c(c2)OCO3)C(=O)N1Cc1ccc(F)cc1 | -4.82% |
| CC(C)CCNC(=O)c1nnc(-c2cccnc2)o1 | 2% |
| Cc1ccc(SCC(=O)Nc2ccccc2C#N)cc1 | -7.34% |

| SMILES | % Inhibition @ 10 uM |
| --- | --- |
| Cc1ccc(S(=O)(=O)/C(C#N)=C/c2c(Oc3ccc(C)cc3C)nc3ccccn3c2=O)cc1 | -3.23% |
| COc1cc(OC)c(C2C(C#N)=C(N)N(c3ccc(F)cc3)C3=C2C(=O)CCC3)cc1OC (stereo not shown) | 14.8% |
| CCCCNC(=O)c1sc2nc(-c3ccc(OC)cc3)cn2c1C | 1.55% |
| CCC(=O)NC(c1cccs1)c1ccc2ccccc2c1O (stereo not shown) | 5.75% |
| CCN1c2cccc3cccc(c23)S1(=O)=O | -2.12% |
| COCCN1C=C(C(=O)OC)C(c2cc(OC)c(OC)c(OC)c2)C(C(=O)OC)=C1 | -5.01% |
| CC(C)C[C@H](NC(=O)c1ccc2ncccc2c1)C(=O)NCC#N | 10.2% |
| COC(=O)CCc1sc2c(c1[N+](=O)[O-])NC(=O)CCC2 | -7.35% |
| CCCNC(=O)C1CC(c2ccc(OC)cc2)=NO1 (stereo not shown) | -0.0115% |
| COc1ccc(-c2noc(CCCN3C(=O)c4ccccc4C3=O)n2)cc1 | 2.31% |
| Cc1ccc(C(=O)NC2=NC(=O)CC(CC(C)C)N2)cc1 (stereo not shown) | -5.52% |
| Cc1nnn(C23CC4CC(CC(C(=O)NC(C)c5ccccc5)(C4)C2)C3)n1 (stereo not shown) | 1.49% |
| CC(C)(C)C1(O)C(=O)Nc2ccccc21 (stereo not shown) | -2.74% |
| CN(Cc1ccccc1)C(=O)Nc1noc2c1COc1ccccc1-2 | -2.28% |
| COc1ccc(-c2cc(-c3ccc(OC)cc3)c3c(N)c(C(N)=O)sc3n2)cc1 | 19.8% |
| COc1ccc(C2CC(c3ccc(Cl)cc3)=NN2c2cccc(C(F)(F)F)c2)c(OC)c1 (stereo not shown) | 5.53% |
| CCc1ccc(-c2nc(CN3CCCC(C(=O)NC4CC4)C3)c(C)o2)cc1 (stereo not shown) | -4.71% |
| O=S(=O)(NCC1CCCO1)c1ccc(S(=O)(=O)N2CCN(c3ncccn3)CC2)cc1 (stereo not shown) | -2.92% |
| c1nc(N2CCCCCC2)c2c3c(sc2n1)CCCCC3 | 5.55% |
| CCc1[nH]nc2c1C(C1CCCCC1)C(C#N)=C(N)O2 (stereo not shown) | -0.68% |
